Test results published in ChEMBL document CHEMBL4888484, “Replenishing the malaria drug discovery pipeline: Screening and hit evaluation of the MMV Hit Generation Library 1 (HGL1) against asexual blood stage Plasmodium falciparum ,using a nano luciferase reporter read-out” (2022).
About 410 (8.5%) of roughly 4,800 compounds showed an effect of 50% or more. The list shows a part of the results.

tested on: Plasmodium falciparum; test: Confirmatory screen in NF54 pLDH assay, in single point, at 2uM, 72h; type: functional, Erythrocyte; details: timepoint 72 hour

Row | Compound | % Inhibition
1 | COc1ccc(-c2nn3c([C@H]4CCCN(C)C4)nnc3s2)cc1Cl | 4%
2 | c1cn(CCCOc2ccc3c(c2)OCO3)nn1 | 2%
3 | Cn1nc(C2CC2)c2c(C(F)F)cc(-c3ccc4c(c3)OCO4)nc21 | 2%
4 | CN(CC(=O)NCc1ccco1)c1nnc(N2CCCC2=O)s1 | 5%
5 | O=C1CCc2cc(OS(=O)(=O)c3ccc(F)cc3)ccc2N1 | 9%
6 | O=C1C[C@@H](C(=O)N2CCC3(CCCCC3)C2)CCN1 | 10%
7 | CN(C(=O)[C@@H]1CCCN1C(=O)OC(C)(C)C)c1nccs1 | 0%
8 | COc1ccc(-n2ncc(Oc3cccc(C)c3)c(Nc3cccc(C(=O)NCc4ccc(F)cc4)c3)c2=O)cc1 | 30%
9 | Cn1cccc1CNCc1ccncc1 | 7%
10 | CC(C)c1c2cc3c(cc2nn1-c1ccccc1)OCCO3 | -11%
11 | NS(=O)(=O)c1ccc(CCNc2nc(-c3ccccc3)nc3ccccc23)cc1 | 5%
12 | Oc1c(-n2cncn2)cnc2ncnn12 | 1%
13 | COc1ccc(-c2c[n+](-c3ccc(Cl)cc3)c3n2CCCCC3)cc1 | 57%
14 | COC(=O)[C@]1(C)CN(C(=O)NCc2cc(C#N)ccc2F)C[C@H]1C | 11%
15 | Fc1ccc(-n2ncc3c(N4CCC[C@H]4c4cccs4)ncnc32)cc1 | 2%
16 | CN1CCN(C2(CNc3ccnc4ccccc34)CCCC2)CC1 | 98%
17 | CC(C)c1nn(C)cc1NS(=O)(=O)CCCC(F)(F)F | 8%
18 | Cc1nc(-c2ccc(NCc3cc4ccccc4o3)nc2)[nH]c(=O)c1C | -12%
19 | C[C@H]1CS(=O)(=O)C[C@H]1NC(=O)Nc1ccc2ccoc2c1 | 1%
20 | C[C@H](Oc1ccccc1)C(=O)N1CCC(c2nc(-c3ccc4c(c3)OCO4)no2)CC1 | 10%
21 | Cc1cccc(NC(=O)c2c(C)sc3ncnc(N4CCCCC4)c23)c1 | 9%
22 | OCCN(Cc1nc2ccccc2o1)c1ccc(Br)cc1 | 1%
23 | Cc1nn(Cc2ccccc2)c2c1C(c1cccc(Cl)c1Cl)c1c(C)nn(Cc3ccccc3)c1O2 | 9%

Row | Compound | % Inhibition
24 | Cc1ccc(-c2noc(CCC(=O)NC3CCCCC3)n2)c(=O)n1C(C)C | 1%
25 | c1cncc(OCc2cnc3ccccn23)c1 | -10%
26 | C[C@H](N)c1ccc(Nc2ncc3cc(-c4ccncc4)ccc3n2)cc1 | 101%
27 | O=C(O)C1C2CC2CN1C(=O)c1ccc(Cl)cc1Cl (configuration not stated) | -14%
28 | CC(C)(C)c1cc(NC(=O)c2ccccc2F)n([C@H]2CCS(=O)(=O)C2)n1 | -7%
29 | O=C(c1ccccc1)c1ccc(O)c(CN2CCCN(c3ccc(C(F)(F)F)cn3)CC2)c1O | 80%
30 | N#Cc1cccc(CNC2CCCCCC2C(N)=O)c1 (configuration not stated) | 1%
31 | Cc1cc(=O)[nH]c(-n2nc(C3CC3)cc2NC(=O)C(c2ccccc2)c2ccccc2)n1 | 87%
32 | O=C(Nc1ccc(N2CCC(N3CCCCC3)CC2)cc1C(=O)O)c1ccccc1Cl | 10%
33 | Oc1ccccc1-c1cnc(C(F)(F)F)s1 | 90%
34 | O=S(=O)(c1ccccc1)N1CCN(S(=O)(=O)c2ccc(Cl)cc2)C1 | 11%
35 | CC(C)(C)OC(=O)NS(=O)(=O)Nc1nccs1 | -14%
36 | N#Cc1cccc(CNc2ccc3c(c2)CCC(=O)N3)c1 | -8%
37 | O=C(Cc1ccc2oc(-c3cccnc3)nc2c1)N1CCN(c2cccc(C(F)(F)F)c2)CC1 | -8%
38 | C[C@](O)(C(=O)NCC(=O)NC1CCCC1)c1ccc(F)cc1 | 8%
39 | Cc1ccc(-c2ccnn2C)cc1NC(=O)[C@H]1CCCOC1 | 13%
40 | O=C(CN1CCOCC1)N1CCN(CCCOc2ccccc2)CC1 | 9%
41 | Cc1nc(CN2C(=O)C(=O)c3cc(Br)ccc32)cs1 | 9%
42 | Cc1ccc(N2C[C@@H](c3nnc(N)o3)CC2=O)cc1 | 8%
43 | Cc1ccc(N2CCCC2)c(C(=O)N2CCN(Cc3c(C)nc4cc(C)ccn34)CC2)c1 | 2%
44 | COc1ccc(-[n+]2c(-c3ccc(-c4ccccc4)cc3)cn3c2COCC3)cc1 | 60%
45 | CN1CCCN(c2ccc(NC(=O)c3cccc(Cl)c3)c(C(=O)O)c2)CC1 | -7%
46 | N#Cc1cc(C(=O)N[C@H]2CCCOCC2)ccn1 | 2%

Row | Compound | % Inhibition
47 | Cc1cc(C)n(-c2ccc(CN3C(=O)NC4(CCCC4)C3=O)cc2)n1 | 6%
48 | CN(Cc1ccc(F)cn1)c1ccn(C)n1 | 8%
49 | COc1cc(OC)cc(N2CCN(C(=O)c3cccc(F)c3)[C@@H](C)C2=O)c1 | -19%
50 | Clc1cccc(-c2c[nH]c([C@@H]3COCCN3C3CCOCC3)n2)c1 | -16%
51 | Cc1[nH]c2nc3ccccc3n2c(=O)c1Cc1ccccc1Cl | -15%
52 | Cc1c(NS(=O)(=O)c2ccc(Cl)cc2)c(-n2cnnc2)nn1C | 1%
53 | O=C(Nc1ccc(F)c(Cl)c1)c1ccn(COc2ccccc2Cl)n1 | -2%
54 | Cn1ncc(Br)c1C(=O)N1CCc2ccccc2C1 | 12%
55 | COc1ccc(-c2nccn3cc(C(=O)N4CCCCCC4)nc23)cc1 | 4%
56 | Cc1cccc(NC(=O)Cn2ccc(C(=O)Nc3cccc(C)c3C)n2)c1C | -11%
57 | CC(C)OC(=O)N1C(=O)c2ccccc2NC1(C(F)(F)F)C(F)(F)F | -14%
58 | CC(=O)C1(C(C)=O)[C@H](c2ccc(F)cc2)C1(C#N)C#N | -24%
59 | COc1ccc(-n2ncc3c(NCCNC(=O)c4ccccc4Cl)nc(C)nc32)cc1 | -27%
60 | CN1CCC(NCC[C@@H](Cc2ccccc2Cl)c2ccc(Cl)cc2)CC1 | 92%
61 | O=C1NCCCc2nn(Cc3cc(F)ccc3Br)cc21 | -19%
62 | Nc1c(-c2nc3ccccc3[nH]2)c2nc3ccccc3nc2n1Cc1ccccc1F | 62%
63 | CCCCCC(=O)Nc1ccccc1Cl | 10%
64 | Cc1nn(C)c(C)c1S(=O)(=O)Nc1ncc(C(C)C)s1 | 10%
65 | CC1(CCCCNC(=O)N2CC[C@H](S(C)(=O)=O)C2)OCCO1 | 6%
66 | Cc1nccn1[C@H]1[C@@H]2OC[C@@H](O2)[C@@H](NCc2ccncc2Cl)[C@@H]1O | 5%
67 | O=C(c1cccc(O)c1)N1CCC(OCc2ccccc2F)CC1 | 8%
